# Reference: PubChem BioAssay AID463173 (ICCB-Longwood Screening Facility, Harvard Medical School, 2010)
# Among all 52,000 compounds or so, about 1,700 (3.3%) were called active. Rule as the data show it: active = survival mostly below about 52% (no sharp cut-off); inactive = mostly above about 56%. This is one part of the list.
# Test system: Wild type
# Assay: S. aureus survival, RN4220 and DeltatarO strains – OD600, teichoic acid synthesis inhibitors, primary screen (AID 463173)
# Conditions: S. aureus RN4220 wild type/DeltatarO growth, OD600, 18 h, hits give low values, screened at 18.75 µg/mL (by protocol)
row,Structure (SMILES),survival
1,Cn1c(Nc2ccc(Cl)cc2)cc(=O)n(C)c1=O,inactive: 73%
2,CC1=C(C(=O)Nc2ccc(C)cc2C)C(c2ccc(O)cc2)n2nc(SCC(=O)c3ccc(C)cc3)nc2N1 (configuration not stated),inactive: 140%
3,COc1ccc(C(=O)c2sc3nc(-c4ccc(F)cc4)ccc3c2N)cc1,inactive: 100%
4,COc1ccc(-c2nc(Cn3c(SCc4cccc(C(F)(F)F)c4)nc4cccnc43)c(C)o2)cc1OC,inactive: 92%
5,Cc1oc2ncn(C)c(=O)c2c1C(=O)NCc1ccc(Cl)cc1,inactive: 69%
6,Cc1cc(OCC(O)CN2CCN(c3cccc(Cl)c3)CC2)ccc1Cl (configuration not stated),active: 0%
7,COc1ccc(OC)c(CNC(=O)C2CCCCN2S(=O)(=O)c2ccc(F)cc2)c1 (configuration not stated),inactive: 49%
8,COc1ccc(C(=O)Nc2ccc(S(=O)(=O)N(Cc3ccccc3)c3ccccc3)cc2)cc1,inactive: 79%
9,COc1ccc(-c2nn3c(=O)cc(CN4CCN(S(=O)(=O)c5ccc(C)cc5)CC4)nc3s2)cc1,inactive: 67%
10,CC(O)CN(N)C1=NS(=O)(=O)c2ccccc21 (configuration not stated),inactive: 98%
11,CC(C)CC(OC(=O)c1cccs1)C(=O)NCc1cccs1 (configuration not stated),inactive: 96%
12,CCCc1nn2c(=O)cc(COC(=O)c3ccc(NC(=O)C4CCCCC4)cc3)nc2s1,inactive: 59%
13,CC(C)Cc1nn2c(=O)cc(COC(=O)c3ccccc3NC(=O)C3CCCCC3)nc2s1,inactive: 81%
14,Cc1cc(S(=O)(=O)Nc2ccc(C(=O)O)cc2)c(C)c(S(=O)(=O)c2ccc(Cl)cc2)c1,inactive: 78%
15,COc1cccc(NS(=O)(=O)c2ccc3c(c2)N(C)C(=O)CC(=O)N3C)c1,inactive: 78%
16,COc1ccc(C)cc1NC(=O)c1cn(C)c(=O)c2cc(OC)c(OC)cc12,inactive: 76%
17,C=CCNC(=S)N1CCN(C(=S)NCC=C)CC1,inactive: 100%
18,Cc1ccc(S(=O)(=O)NCc2nc3cccnc3n2Cc2ccccc2Cl)c(C)c1,inactive: 72%
19,CCc1nnc2c(Nc3ccc(N(CC)CC)cc3C)nc3ccccc3n12,inactive: 120%

row,Structure (SMILES),survival
1,O=C(CSc1ncn[nH]1)N1CCCCC1,inactive: 108%
2,COc1ccccc1NC(=O)CN1C(=O)c2ccccc2Sc2ccc(C(=O)N3CCCC3)cc21,inactive: 57%
3,CCc1ccccc1NC(=O)N1CC(C)Sc2ccccc21 (configuration not stated),inactive: 73%
4,O=C(Nc1ccc(Br)cc1F)N1CC=C(c2c[nH]c3ccccc23)CC1,inactive: 105%
5,CC(=O)c1ccc(NC(=O)c2nc(-c3ccccc3)n(-c3ccccc3)n2)cc1,inactive: 92%
6,CC(=O)c1ccccc1OCC(O)Cn1c(CO)nc2ccccc21 (configuration not stated),inactive: 88%
7,O=C(c1cc2ccccc2oc1=O)N1CCSC1c1ccco1 (configuration not stated),inactive: 122%
8,COc1cccc(N2CCN(C(=O)CCCCCn3c(=O)[nH]c4ccccc4c3=O)CC2)c1,inactive: 76%
9,CC1CCn2c(nc3cc(C(=O)NCc4ccc(OC(C)C)cc4)ccc32)C1 (configuration not stated),inactive: 105%
10,Cc1cc(N2C(=O)CCC2=O)n(-c2ccccc2)n1,inactive: 111%
11,CC(C)c1ccc(NC(=O)CSc2nc3ccccc3nc2Cc2ccccc2)cc1,inactive: 65%
12,COc1ccccc1CNC(=O)C1CCN(S(=O)(=O)c2ccc3c(c2)CCCN3C(C)=O)CC1,inactive: 92%
13,CCC(C(=O)NC1CCC(C)CC1)n1nc(C)c2sc3ccccc3c2c1=O (configuration not stated),inactive: 88%
14,CCc1ccc(CNC(=O)c2cc3c(=O)n(Cc4cccs4)ccc3nc2C)cc1,active: 0%
15,CCc1nc2nc(C)c(NS(=O)(=O)c3ccc(C)cc3)c(=O)n2[nH]1,inactive: 84%
16,CCOc1ccccc1NC(=O)Cn1nnc(C(=O)NCc2ccc(F)cc2)c1N,inactive: 101%
17,CN(C)CCNC(=O)C(=O)NCC(c1cccnc1)N1CCN(c2ccc(F)cc2)CC1 (configuration not stated),inactive: 87%
18,COc1ccc(Cn2ccc3nc(C)c(C(=O)N4CCN(c5ccc(OC)cc5)CC4)cc3c2=O)cc1,inactive: 130%
19,COc1cccc(/C=N/n2c(N)nc3ccccc32)c1OC,inactive: 103%

row,Structure (SMILES),survival
1,Cc1ccc(S(=O)(=O)N(C)Cc2nc(-c3ccccc3)oc2C)cc1,inactive: 74%
2,Cc1cc(C)cc(NC(=O)Cc2c(C(=O)O)c(C)cn2C)c1,inactive: 47%
3,O=C(Cn1cc(SCc2ccccc2F)c2ccccc21)N1CCCCC1,inactive: 93%
4,O=C(NCc1ccco1)c1ccc2c(c1)N(Cc1c(F)cccc1Cl)C(=O)c1ccccc1S2,inactive: 93%
5,COc1ccc(-c2c(C)nn3c(C(F)(F)F)cc(-c4ccccc4)nc23)cc1,inactive: 60%
6,COc1ccc(OC)c(NC(=O)c2cc(C3CC3)nc3c2c(C)nn3-c2ccc(C)cc2)c1,inactive: 75%
7,COc1ccc(C(=O)NCc2ccc3c(c2)CCN3C(=O)c2ccc(C)cc2)cc1,inactive: 105%
8,Cc1cccc(-n2c(=O)c3ccccc3n(Cc3ccccc3)c2=O)c1,inactive: 87%
9,Cc1ccc(-n2nc3ccc(NC(=O)COc4ccccc4)cc3n2)cc1Cl,inactive: 73%
10,Cc1ccc(CNC(=O)C2CCN(Cc3nc(-c4cccc(Br)c4)oc3C)CC2)cc1,inactive: 75%
11,CC(=O)c1cccc(NC(=O)C2CCN(S(=O)(=O)c3ccc4[nH]c(=O)ccc4c3)CC2)c1,inactive: 75%
12,CCOc1ccc(-n2c(=O)c3c4c(sc3n(CC(=O)NC(C)CC)c2=O)CCCC4)cc1 (configuration not stated),inactive: 89%
13,CCOc1ccc(N(CC)C(=O)c2nn(-c3ccc(OC)cc3)c(=O)c3c2c2ccccc2n3C)cc1,inactive: 92%
14,Cc1cc(C(=O)OC(C)C)ccc1-c1ccc(C=C(C#N)C#N)o1,inactive: 113%
15,CCc1cc2c(cc(C(=O)OC)n2Cc2nc(-c3ccc(C)cc3)oc2C)s1,inactive: 16%
16,O=C(CSc1nc2c([nH]c3ccccc32)c(=O)n1-c1cccc(C(F)(F)F)c1)N1CCc2ccccc21,inactive: 77%
17,O=C(O)c1ccc(CNCc2ccccc2Cl)s1,inactive: 88%
18,CCc1ccc(C(=O)N2CCC(c3nc(-c4ccc(S(=O)(=O)N5CCCC5)cc4)no3)CC2)cc1,inactive: 95%
19,COc1ccc(/C=C2\SC(=S)N(CCC(=O)NCCO)C2=O)cc1,inactive: 119%
